“And” between values parts separate entries of the source, which are not always exact repeats. Equal entries are not always repeated. “Also recorded” adds a separate entry of the source.
How the values were obtained:
[1] = test system: CD3 primed primary human T lymphocytes; assay: Effect of anti-OX40L antibodies on CD3 primed primary human T lymphocytes; assay type: cell-based; conditions: IgG4PE format, 10 μg/mL, 5 days, four independent donors; over human IgG4PE isotype control
Procedure: In order to determine whether anti-OX40L had the ability to induce T-cell responses in the absence of OX40L, the assay below was performed using method adapted from Wang et al., Hybridoma (Larchmt)., 2009 August; 28(4):269-76, in which an agonist anti-OX40L antibody was described.
A mouse anti-human CD3 antibody (Becton Dickinson) was diluted to 0.5 μg/mL in sterile PBS and 50 μL/well added to a 96 well high binding sterile plate and incubated overnight at 4° C.
Following overnight incubation, the plate was washed three times with 100 μL of sterile PBS.
T-cells (CD3 positive) were isolated from PBMC derived from leukoreduction system chambers (NHSBT) as described in Example 3. Following isolation, the cells were added to wells in 100 μL to achieve a final concentration of 1×10^5 cells/well.
Test antibodies were diluted in RPMI+10% FBS and 50 μL or 100 μL/well added to cell plate to achieve a final assay concentration of 10 μg/mL. In some cases, a mouse anti-human CD28 antibody (Becton Dickinson) was also added to wells at a final concentration of 1 μg/ml
The assay was incubated for 5 days. After 5 days, harvest supernatants and IFN-γ levels in supernatant were determined as described in Example 5.

[2] = test system: Rhesus Macaque model of haploidentical hematopoietic stem cell transplantation (HSCT); assay: Rhesus Macaque Graft Versus Host Disease (GvHD) model
recombinant hOX40L = biological target: T1, recombinant hOX40L (Homo sapiens, UniProt P23510); assay: Surface Plasmon Resonance apparent affinity, human OX40L; assay type: binding; conditions: SPR, OX40L at single concentration of 256 nM, 25° C.; CNROR = Cannot resolve off-rate
T1 construct: cDNA encoding the extracellular domain of human OX40L was cloned into a pREP4 expression plasmid; isoleucine zipper (trimerisation motif) (N); made in house; host or cells: FreeStyle CHO-S, transient expression
Procedure: (§1) SPR analysis was carried out using the ProteOn™ XPR36 Array System (BioRad). Anti-mouse IgG (GE Healthcare BR-1008-38) was immobilised on a GLM biosensor surface using amine coupling, the surface was then blocked using 1 M ethanolamine. Test antibodies were captured on this surface and recombinant hOX40L (human and rhesus) were used at a single concentration of 256 nM, binding sensorgrams were double referenced using a buffer injection (i.e. 0 nM) to remove baseline drift and injection artefacts. Apparent affinities for the OX40L-antibody interaction were determined using the 1:1 model inherent to the ProteOn XPR36 analysis software. The assay was run using HBS-EP (Teknova) as running buffer and carried out at 25° C.

Rhesus monkey OX40L = assay: Surface Plasmon Resonance apparent affinity, rhesus OX40L; assay type: binding, Rhesus (Macaca mulatta); conditions: SPR, OX40L at single concentration of 256 nM, 25° C.; CNROR = Cannot resolve off-rate
Procedure: as §1

[3] = test system: IFN-γ release in PBMC/PBMC MLR; assay: Allogenic PBMC/PBMC Mixed Lymphocyte Reaction; assay type: cell-based, human; conditions: compared to the isotype control, one valid experiment
Procedure: PBMCs are isolated from leukoreduction system chambers (NHSBT) using Ficoll-Paque® plus (GE Healthcare) density gradient centrifugation. PBMC are pre-incubated with mitomycin C (Sigma) at 10 μg/mL in PBS for one hour at 37° C. Cells are then washed 3 times in PBS centrifuging at 300×g for 3 minutes, aspirating the supernatant after each wash. Allogeneic PBMC (not treated with mitomycin C) are added to a 96-well plate in RPMI supplemented with 10% v/v FBS at a concentration of 2×10^6/ml, 50 μL/well. Anti-OX40L antibodies are diluted in culture media and added to 96 well plate containing PBMC (not mitomycin C treated) at 50 μL/well. Mitomycin C treated PBMC are then added to allogeneic PBMC (not treated with mitomycin C) in 96-well plate at a final cell ratio in range of 1:1 to 4:1 mitomycin C treated to non mitomycin C based on number of cells/well. […] After five days TNF-α, IFN-γ, and IL-2 are measured by Duoset® ELISA (R&D Systems) according to manufacturer's recommendations. Proliferation is measured by CFSE dilution according to manufacturer's recommendations.
PBMCs were isolated from leukoreduction system chambers (NHSBT) using Ficoll-Paque® plus (GE Healthcare) density gradient centrifugation. […] After five days, IFN-γ was measured by Duoset® ELISA (R&D Systems) according to manufacturer's recommendations. […]
Based on values from IFN-γ or IL2 release (pg/mL) determined as described […]

[4] = one line per animal, 2D10 IgG4PE 10 mg/kg, brackets = experimental failure

T1 sequence (P23510 with tags, fused parts or gaps): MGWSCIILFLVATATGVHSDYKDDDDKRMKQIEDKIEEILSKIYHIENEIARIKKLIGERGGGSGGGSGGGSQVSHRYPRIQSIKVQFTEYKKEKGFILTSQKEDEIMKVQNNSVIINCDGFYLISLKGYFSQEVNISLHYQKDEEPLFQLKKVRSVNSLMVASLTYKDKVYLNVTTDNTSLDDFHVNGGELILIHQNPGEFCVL

B1: 2D10 (human): fully human anti-human OX40L antibody, IgG4-PE, kappa; heavy chain SEQ ID No:62, light chain SEQ ID No:64 (antibody, listed as Homo Sapiens)
heavy: EVQLVESGGGLVQPGGSLRLSCAASGFTFSNYAMNWVRQAPGKGLEWVSTISGSGGATRYADSVKGRFTISRDNSRNTVYLQMNSLRVEDTAVFYCTKDRLIMATVRGPYYYGMDVWGQGTTVTVSSASTKGPSVFPLAPCSRSTSESTAALGCLVKDYFPEPVTVSWNSGALTSGVHTFPAVLQSSGLYSLSSVVTVPSSSLGTKTYTCNVDHKPSNTKVDKRV[human IgG4 Fc with changes not spelt out]
light: DIQMTQSPSSLSASVGDRVTITCRASQSISSYLNWYQQKPGKAPNLLIYAASSLQSGVPSRFSGSGSETDFTLTISSLQPEDFATYYCQQSHSVSFTFGPGTKVDIKRTVAAPSVFIFPPSDEQLKSGTASVVCLLNNFYPREAKVQWKVDNALQSGNSQESVTEQDSKDSTYSLSSTLTLSKADYEKHKVYACEVTHQGLSSPVTKSFNRGEC
IFN-γ release (T-cell response in the absence of OX40L) [1]: no effect | serious adverse dosing side effects ([2]; 10 mg/kg, weekly from Day −2, Rhesus HSCT recipients): No serious adverse dosing side effects | Gross necropsy: visceral GvHD ([2]; animal #4): no overt visceral GvHD | Survival to Day ([2]; one line per animal (#1, #2, #4, #5, #6), 3-4 doses of 2D10 IgG4PE, #1 recorded as Technical Failure): Survival to Day 16. Received 3 doses of 2D10 IgG4PE. Peak peripheral blood donor; also recorded: Survival to Day 26. Received 4 doses of 2D10 IgG4PE. Clear hematopoietic; also recorded: Survival to Day 22. Received 4 doses of 2D10 IgG4PE. Clear hematopoietic; also recorded: Survival to Day 16. Received 3 doses of 2D10 IgG4PE. Clear hematopoietic; also recorded: Survival to day 24. Received 4 doses of 2D10 IgG4PE. Biphasic hematopoietic Day | Survival Duration [2, 4]: 22 days and 16 days (2×) and 26 days | Survival Duration (days) [2, 4]: (24) days | Whole Blood Chimerism (%) Day 0 ([2]; one line per animal, Day 0 post-transplant): 0% | Whole Blood Chimerism (%) Day 1 ([2]; one line per animal, Day 1, listed as 2D10 IgG4PE): 16.6% and 5.7% and 22.9% | Whole Blood Chimerism (%) Day 4 ([2]; one line per animal, Day 4): 6.6% | Whole Blood Chimerism (%) Day 5 ([2]; one line per animal, Day 5, listed as 2D10 IgG4PE): 91.4% and 66.3% and 31.7% and 68.2% | Whole Blood Chimerism (%) Day 7 ([2]; one line per animal, Day 7): 27.5% | Whole Blood Chimerism (%) Day 8 ([2]; one line per animal, Day 8, listed as 2D10 IgG4PE): 98.4% and 97.4% and 66.3% and 82.9% | Whole Blood Chimerism (%) Day 11 ([2]; one line per animal, Day 11): 90.4% | Whole Blood Chimerism (%) Day 12 ([2]; one line per animal, Day 12, listed as 2D10 IgG4PE): 98.6% and 99.5% and 82.3% and 92.1% | Whole Blood Chimerism (%) Day 14 ([2]; one line per animal, Day 14): 81.8% | Whole Blood Chimerism (%) Day 15 ([2]; one line per animal, Day 15, listed as 2D10 IgG4PE): 99.1% and 99.4% and 88.2% and 97.5% | Whole Blood Chimerism (%) Day 16 ([2]; one line per animal, Day 16): 79.8% | Whole Blood Chimerism (%) Day 18 ([2]; one line per animal, Day 18): 19.7% | Whole Blood Chimerism (%) Day 20 ([2]; one line per animal, Day 20, listed as 2D10 IgG4PE): 99.2% and 98.4% | Whole Blood Chimerism (%) Day 21 ([2]; one line per animal, Day 21): 0% | Whole Blood Chimerism (%) Day 23 ([2]; one line per animal, Day 23, listed as 2D10 IgG4PE): 98.6% and 98.8% | Whole Blood Chimerism (%) Day 26 ([2]; one line per animal, Day 26): 98.7% | peak peripheral blood donor chimerism ([2]; one line per animal, day of peak as printed (#2 Day 15, #4 Day 23, #5 Day 12, #6 Day 12), listed as 2D10 IgG4PE): 88% and 99% (2×) and 100% | evidence of CMV or rhLCV infection ([2]; one line per animal, listed as 2D10 IgG4PE): No evidence of CMV or rhLCV infection and No (3×) and followed by autologous repopulation concurrent with evidence of CMV and rhLCV

B2: 10A07 (human): fully human anti-human OX40L antibody, IgG4-PE, kappa; VH SEQ ID No:2, VL SEQ ID No:16; heavy chain SEQ ID No:30, light chain SEQ ID No:32 (antibody, listed as Homo Sapiens)
heavy: EVQLVESGGVLVQPGGSLRLSCAASGFTFSSYIMTWVRQAPGKGLEWVSGISGSGGGTYYADSMKGRFTISRDNSKNTLYLQMNSLRVEDTAVYYCAKDRLGPITLVRGGYYYGMDVWGQGTTVTVSSASTKGPSVFPLAPCSRSTSESTAALGCLVKDYFPEPVTVSWNSGALTSGVHTFPAVLQSSGLYSLSSVVTVPSSSLGTKTYTCNVDHKPSNTKVDKRV[human IgG4 Fc with changes not spelt out]
light: DIQMTQSPSSLSASVGDRVTITCRASQSISDYLNWYQQKPGKAPKFLIYAASSLQSGVPSRFSGSGSGTDFTLTVSSLQPEDFATYYCQQSYSTPRTFGQGTRVEIKRTVAAPSVFIFPPSDEQLKSGTASVVCLLNNFYPREAKVQWKVDNALQSGNSQESVTEQDSKDSTYSLSSTLTLSKADYEKHKVYACEVTHQGLSSPVTKSFNRGEC
Apparent Affinity hOX40L (nM) (recombinant hOX40L): CNROR | Apparent Affinity RhsOX40L (nM) (Rhesus monkey OX40L): CNROR | IFN-γ release [3]: inhibited IFN-γ release | IFN-γ release (T-cell response in the absence of OX40L) [1]: no effect

Source: patent US11753479B2, “Nucleic acids encoding anti-OX40L antibodies” (Kymab Limited, priority 2014, dated 2023)
